# In the supplement of paper PMC4466236:
# The full ranking holds about 33,000 sequences; the median of “E-score (dimensionless, -0.5 to 0.5)” is about -0.058, and the highest 2% start at about 0.35. The list shows a part of the results.
# Test system: MvaT
# Assay: PBM 8-mer E-score (mean of HK and ME arrays) (E-score (dimensionless, -0.5 to 0.5)); higher = stronger relative binding preference; most listed sequences are background and not binding sites
# Description: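 Protein binding microarray: GST-tagged full-length MvaT (P. aeruginosa PAO1) bound to two universal double-stranded 60-mer arrays (ME and HK), each with a constant 25-mer primer and a variable 35-mer region covering all 8-mers. The 8-mer E-score (rank-based, range -0.5 to 0.5, >0.45 = specific binding) is the mean of the two arrays.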
row,Sequence,PBM 8-mer E-score
1,GTAGCCCA,-0.0865
2,AGCCTGGC,-0.222
3,CGGAACGC,-0.135
4,GCAGGGGA,-0.33
5,AGTTTAAC,0.244
6,GATGCGGC,-0.23
7,CGAGACTA,0.0742
8,CGCTTGGC,-0.193
9,CGGACCTC,-0.258
10,GCTATAGA,-0.132
11,CCGGAGTC,-0.19
12,CACCCCTA,-0.204
13,CTGCCTGC,-0.219
14,AGTAGACC,-0.0279
15,GGATACCA,-0.0481
16,GATACCGA,0.0372
17,GAGAGTAC,-0.0129
18,AAAGCCTC,-0.0957
19,AGGGAGTC,-0.241
20,AAGGTCGT,-0.0288
21,TATGCCAA,-0.03
22,CCGGTGAA,-0.0479
23,CGGAGCTA,-0.286
24,AGGTGGCA,-0.248
25,AGTGGAGC,-0.186

row,Sequence,PBM 8-mer E-score
1,ATAAATCA,0.295
2,CCCTGCAC,-0.275
3,GCATTAGA,-0.0404
4,GCGCCGAC,-0.227
5,CTACGGAA,-0.0295
6,AACTTGAC,0.245
7,AGGTGCTC,-0.273
8,CCACTTAA,0.0414
9,ACAGTTGC,-0.0905
10,ATTTACCA,0.289
11,CCGCTTCC,-0.31
12,AGCCCCAC,-0.236
13,AAACTCGC,0.0798
14,AAGAGATC,0.0177
15,CATCTACG,0.015
16,GCAGAGGA,-0.233
17,GGGCTGGA,-0.198
18,CGTTCAAG,-0.0745
19,ACAGTGGC,-0.0224
20,TACCTCGA,-0.0927
21,CAGTAACG,0.0226
22,TCCCATAA,0.0366
23,AACACAGT,0.00605
24,CCAGTTAG,0.177
25,CTGCCCAG,-0.317

row,Sequence,PBM 8-mer E-score
1,CTGCTTAA,0.142
2,GGCTAGAC,-0.23
3,CGGCAACG,-0.104
4,CAGCTAAG,-0.132
5,CTGAAGTA,0.15
6,ACAACGTG,-0.242
7,ATGGTTAG,0.000154
8,CTCCACAC,-0.0248
9,GCAAATCC,-0.0337
10,AGCATCCA,-0.137
11,CGGTAATC,0.00707
12,CTATCCTA,0.0416
13,GCCGCCAC,-0.209
14,CTGCAAAG,-0.035
15,GGGGAGCA,-0.201
16,AACCGGAG,-0.187
17,GCCTGTTA,-0.0185
18,AGATGAAG,-0.0948
19,GGCAACCA,-0.0483
20,AGGGGCTG,-0.257
21,ATTTCTTC,0.122
22,ACTCATGG,-0.0547
23,CCGTAGCC,-0.276
24,ACTTACTG,0.154
25,CAATTGAC,0.147

row,Sequence,PBM 8-mer E-score
1,CTCGAACA,0.00851
2,ACCGACCG,-0.125
3,AGTTCTAC,0.16
4,CCATTGCA,-0.0586
5,ATTTGGCA,0.0336
6,GAGACTCA,-0.143
7,CCACCGCC,-0.0437
8,CTATCGAC,-0.0412
9,ACAGTACT,0.143
10,CTCCCGTC,-0.313
11,AGGGCTCA,-0.281
12,AATCGGGA,-0.0897
13,GCTCGGCC,-0.174
14,GCAAAGCA,0.0492
15,AGTCAACT,0.00552
16,CTAGTGCA,0.0373
17,CTGTACGC,-0.155
18,GCCGAAAA,0.0286
19,CCAAGCTC,-0.211
20,CACAATAA,0.351
21,CAGTATTC,0.0796
22,TGTGCCAA,-0.0753
23,GCCAAACA,0.0218
24,CCTGACAG,-0.214
25,GCCGCACC,-0.263

row,Sequence,PBM 8-mer E-score
1,ACAAATTC,0.114
2,CAATCGGC,-0.255
3,ATGGAGGC,-0.227
4,CATACAGA,0.026
5,ATGCCTGC,-0.114
6,CTACGTAA,-0.1
7,AAGTTCGA,0.254
8,AGCGACAA,-0.154
9,AAGGTTTG,-0.00622
10,CTTCTGCC,-0.259
11,GTTTGGCA,-0.0591
12,AAGCTTGT,-0.0683
13,GCCGTCAA,-0.128
14,CGAGCTTA,-0.096
15,CCTGATCC,-0.242
16,AAATACCC,0.223
17,TATGGCAA,-0.0129
18,CCTATCTC,0.0122
19,CTGGAGCA,-0.143
20,GACGGCTC,-0.143
21,CAGCTCAG,-0.149
22,TGATCGAA,-0.069
23,GTCGGCGA,-0.171
24,TATGCCGA,-0.0202
25,AATGGTGT,0.113

row,Sequence,PBM 8-mer E-score
1,ATATTTCC,0.34
2,CCTGTCCC,-0.213
3,TAACGATA,0.222
4,CGTGTCCA,-0.105
5,AGAACCTG,-0.183
6,ATGTCGTA,0.105
7,GATTAAAC,0.191
8,AGGGCGGA,-0.174
9,ACCAAGTG,0.0528
10,AGGGACTC,-0.203
11,GGTACTCA,-0.0459
12,ATAGCGAT,0.103
13,GGTCGAAA,-0.088
14,GACCCTAC,-0.272
15,AGGGCCTC,-0.159
16,CGCGGTAA,0.00285
17,AAGGCTGT,-0.205
18,CCCTTCAC,-0.357
19,GGTTCGTA,-0.165
20,CTGCCGTA,-0.119
21,GCACCATA,0.0674
22,TATCACAA,0.264
23,CTTTTGTC,0.0941
24,TCTTTACA,0.157
25,CATTTTAG,0.112

row,Sequence,PBM 8-mer E-score
1,CGCTCCAC,-0.171
2,ACAGCCTC,-0.211
3,TAGAGCAA,-0.0916
4,ATTCGAAG,0.164
5,AGCTAAAA,-0.0483
6,ATGGCATG,-0.0842
7,GTCGTATA,0.129
8,AAGGAGCT,-0.22
9,CTACATGC,-0.081
10,AATGCCAC,0.0378
11,ACTTGGAA,0.12
12,ATCTGGCA,-0.0575
13,CCAGACGA,-0.0247
14,ACGGCAAG,-0.124
15,AACAGACG,0.0208
16,AAACTTCG,0.236
17,GCAAAGAC,-0.202
18,ACAATAGT,0.294
19,AAGAATAA,0.368
20,ACATCGGC,-0.173
21,GCATTCAC,0.00456
22,CCTTGTCG,-0.167
23,ATCTCATG,-0.00311
24,GGGACATA,-0.0264
25,AGGGCTCC,-0.302

row,Sequence,PBM 8-mer E-score
1,AGTTGGTA,0.229
2,ACTTGGCG,0.0161
3,GCGACCCC,-0.139
4,CGAAAGCG,-0.224
5,AACTCAAG,-0.0533
6,ACCAGAGC,-0.224
7,AATGGAAC,0.052
8,AAGAATAG,0.12
9,CAAAAGCG,0.0233
10,GGAATTCA,0.0984
11,ACAAAACT,0.138
12,CTTGGCAA,0.00207
13,CAATGCTG,-0.0786
14,GGAGTACA,-0.00566
15,CACGGGGG,-0.347
16,TGACCTCA,-0.175
17,CGACAAAC,0.0232
18,AATTCAGA,0.251
19,CAGATCTG,-0.121
20,AATTAAGT,0.395
21,GGCACGAA,-0.255
22,CGTCGTAC,-0.182
23,ACTGGAGC,-0.113
24,CCAGCAGA,-0.138
25,CTGCAAGC,-0.29

row,Sequence,PBM 8-mer E-score
1,CATCGGAG,-0.157
2,CTGATCAA,-0.0959
3,GTGGGTGA,0.0119
4,ACTGATGA,-0.0672
5,GAAACCGA,-0.0374
6,CCTCAATC,-0.0519
7,ACATAATA,0.401
8,CCAAAAGG,-0.187
9,GTTGATCA,0.0156
10,GAATAGAC,0.00866
11,ACAGTGTG,0.0186
12,AGCGTGTA,-0.00148
13,AATCTAGG,-0.049
14,GTCACAAA,0.141
15,AATTCTCT,0.137
16,CCCCGGAG,-0.343
17,CGCTGCAA,0.0561
18,AAGGCGCT,-0.151
19,CAGTTTGA,0.132
